According to PubChem BioAssay AID485281 (National Center for Advancing Translational Sciences (NCATS), 2010):
In all, about 350,000 compounds went through this assay and about 260 (0.074%) were called active. Inconclusive results, whose numbers are uncertain, are shown with a selection of clear calls. Calls follow the shape of the dose curve; as a rule, active = well fitted inhibition curve with a large enough effect; inconclusive = small, poorly fitted or top-dose-only effect; inactive = no such curve, though single readings can be large or run the other way. Where the call is inconclusive, the potency comes from a doubtful curve fit.

Each compound was assayed against Ferritin light chain (Equus caballus) (UniProt P02791) (assay: qHTS Assay for Identification of Novel General Anesthetics). Conditions: apoferritin/1-aminoanthracene competitive binding, fluorescence; activity change, negative = displacement: at 77.5 µM (top of the series).
Outline: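 In PBS, apoferritin at 10 uM is loaded with 1-AMA from a 50% saturated solution. After 10 min of compound exposure at ambient temperature, reduced 535 nm fluorescence indicates probe displacement.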
% is scaled to controls: 0 for no effect and ±100 for the full control effect; potency is read from the fitted curve at half-maximal effect; tags tell the direction and shape of the fitted curve.
Also: nearly all actives have a fitted effect of over 20% in size.

Chain of UniProt P02791 (P02791 whole entry, looked up): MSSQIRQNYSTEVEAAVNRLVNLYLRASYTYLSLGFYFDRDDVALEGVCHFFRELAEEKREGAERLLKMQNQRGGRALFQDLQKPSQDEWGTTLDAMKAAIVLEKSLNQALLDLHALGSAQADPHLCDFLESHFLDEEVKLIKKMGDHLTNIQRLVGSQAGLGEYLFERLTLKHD

Structure (SMILES) | Potency | activity change, negative = displacement
CCCCCOc1ccc(N2C(=O)CC(N(O)c3ccccc3)C2=O)cc1 (centres undefined) | inconclusive: 14.1 µM [inhibitor, partial curve] | 
COc1ccc(-c2nn3c(-c4ccccn4)nnc3s2)cc1OC |  | inactive: -8.46%
CCCCCCc1cc2cc(-c3nnc(-c4cc(OC)c(OC)c(OC)c4)o3)c(=O)oc2cc1O |  | inactive: 33.7%
CC1(c2ccccc2)NC(=O)N(CC(=O)Nc2ccc([N+](=O)[O-])cc2)C1=O (centres undefined) | inconclusive: 17.8 µM [inhibitor, partial curve] | 
O=C(/C=C/c1ccc(Cl)cc1Cl)Nc1cccc(S(=O)(=O)NC2=NCCC2)c1 | inconclusive: 39.8 µM [inhibitor, single point] | 
CC1=C(C(=O)OCCC(C)C)C(c2ccc3c(c2)OCO3)NC(=O)N1 (centres undefined) | inconclusive: 28.2 µM [inhibitor, partial curve] | 
O=C(COC(=O)c1ccccc1C(=O)c1ccccc1)Nc1ccc(SC(F)F)cc1 |  | inactive: -21%
O=C(COC(=O)c1cc(-c2cccs2)nc2ccccc12)c1ccccc1 | inconclusive: 17.8 µM [inhibitor, partial curve] | 
C=COc1ccc(N2C(=O)c3ccccc3OC2C)cc1 (centres undefined) | inconclusive: 50.1 µM [inhibitor, partial curve] | 
Cc1cc(C)c(/C([O-])=C(/C(=S)Nc2ccc(SC(F)F)cc2)[n+]2ccccc2)cc1C | inconclusive: 28.2 µM [inhibitor, partial curve] | 
COc1ccccc1CNc1ccc2c(c1)CCC2 | inconclusive: 22.4 µM [inhibitor, partial curve] | 
Cc1ccc(O)c(C(=O)c2cnc3c(c2)CN(CCC(C)C)C(=O)N3)c1 | inconclusive: 56.2 µM [inhibitor, partial curve] | 
COc1ccc(OC)c(/C=N/NC(=O)c2csc3ccccc23)c1 |  | inactive: 105%
O=C(Nc1nnc(C2COc3ccccc3O2)o1)c1ccc(F)cc1 (centres undefined) | inconclusive: 31.6 µM [inhibitor, partial curve] | 
O=C(Cn1cnc2cc([N+](=O)[O-])ccc2c1=O)Nc1ccc2c(c1)CCC2 | inconclusive: 25.1 µM [inhibitor, partial curve] | 
COc1cccc(Oc2ccc(C(F)(F)F)cc2N)c1 | inconclusive: 28.2 µM [inhibitor, partial curve] | 
O=C(Cc1ccccc1)Nc1ccc(N2CCCC2)cc1 |  | inactive: -17%
O=C(COc1ccc(Cl)cc1[N+](=O)[O-])NC1CCCCC1 | inconclusive: 25.1 µM [inhibitor, partial curve] | 
CC(=O)c1cccc(NC(=O)NNC(=O)c2ccc(Cl)cc2Cl)c1 | inconclusive: 31.6 µM [inhibitor, partial curve] | 
O=C(NCc1ccc2c(c1)OCO2)c1ccc2c(=O)n(C3CCCC3)c(=O)[nH]c2c1 | inconclusive: 8.91 µM [inhibitor, partial curve] | 
Oc1ccc2ccccc2c1C=Nc1ccc(N2CCOCC2)cc1 | inconclusive: 5.01 µM [inhibitor, partial curve] | 
CCN(CC)S(=O)(=O)c1ccc(OC)c(NC(=S)Nc2cc(C)ccc2C)c1 | inconclusive: 28.2 µM [inhibitor, partial curve] | 
CSc1n[nH]c(-c2sccc2OCc2ccc(C)cc2)n1 | inconclusive: 20 µM [inhibitor, partial curve] | 

Structure (SMILES) | Potency | activity change, negative = displacement
CC1CC(c2ccccc2)n2nc(NC(=O)CCc3ccccc3)nc2N1 (centres undefined) | inconclusive: 28.2 µM [inhibitor, partial curve] | 
CCOC(=O)CC1Sc2ccccc2NC1=O (centres undefined) | inconclusive: 28.2 µM [inhibitor, partial curve] | 
Cc1[nH]c(N=Nc2ccccc2)nc1N=Nc1ccccc1 | inconclusive: 15.8 µM [inhibitor, partial curve] | 
COC(=O)C1=C(c2ccccc2)c2ccccc2S(=O)(=O)N1CC(=O)Nc1cccc(C(C)=O)c1 | inconclusive: 20 µM [inhibitor, partial curve] | 
CCC1=NN(C(=O)c2ccc([N+](=O)[O-])cc2)C(O)(c2ccccc2)C1 (centres undefined) | inconclusive: 31.6 µM [inhibitor, partial curve] | 
CC(=O)Nc1nnc(SCc2ccc(F)cc2)s1 | inconclusive: 4.47 µM [inhibitor, full curve] | 
CCC(O)CNC(=O)NC(=C(Cl)Cl)c1ccc(C)c(F)c1 (centres undefined) |  | inactive: -3.78%
O=C(OCC(=O)c1cccc2ccccc12)c1ccc(CO)cc1 | inconclusive: 31.6 µM [inhibitor, partial curve] | 
Nc1nc(-c2nn(Cc3ccccc3F)c3ncccc23)ncc1C1CC1 |  | inactive: 6.88%
COc1ccc(C2(C)NC(=O)N(CC(=O)NC(C)c3ccc(CC(C)C)cc3)C2=O)cc1 (centres undefined) | inconclusive: 28.2 µM [inhibitor, single point] | 
Cc1cccc(OCCCC(=O)NC2CCCCC2)c1 | inconclusive: 25.1 µM [inhibitor, partial curve] | 
COc1ccc(-c2cc3c(=O)n(CC(=O)NCc4ccc(Cl)cc4)ncn3n2)cc1 |  | inactive: -6.26%
CC(C)[C@@H]1CC[C@@H](C)c2c(-c3ccccc3)n[nH]c21 | inconclusive: 31.6 µM [inhibitor, partial curve] | 
CC(C)COc1ccc(CN=C(N)N=C(N)N)cc1Cl | inconclusive: 50.1 µM [inhibitor, single point] | 
COc1ccc(CCCc2nnc(SCC(=O)N/N=C\c3ccc(O)c(OC)c3)o2)cc1C | inconclusive: 20 µM [inhibitor, partial curve] | 
COC(=O)c1ccc2c(=O)n(Cc3ccc(C(=O)NCCCN4CCC(C)CC4)cc3)c(=S)[nH]c2c1 | inconclusive: 11.2 µM [inhibitor, partial curve] | 
Fc1cc(F)c(C2SCCN2C(=S)Nc2cccc(C(F)(F)F)c2)c(F)c1 (centres undefined) |  | inactive: -17%
COc1ccc(Cn2c(C(=O)O)c(CNCCc3ccco3)c3ccc(C)cc32)cc1 | inconclusive: 50.1 µM [inhibitor, single point] | 
NC(=O)c1ccsc1NC(=O)COC(=O)/C=C/c1ccc([N+](=O)[O-])cc1 |  | inactive: -0.723%
Clc1ccc(-n2cnnn2)cc1 |  | inactive: -6.02%
Cc1cc(C(F)F)n2nc(C(=O)Nc3cccc(Cl)c3C)nc2n1 | inconclusive: 31.6 µM [inhibitor, partial curve] | 
Cc1ccn(S(=O)(=O)c2ccc(C(C)(C)C)cc2)n1 | inconclusive: 25.1 µM [inhibitor, partial curve] | 
COc1ccc(NC(=S)NC(=O)Cc2ccccc2)cc1 | inconclusive: 22.4 µM [inhibitor, partial curve] | 

Structure (SMILES) | Potency | activity change, negative = displacement
Cc1ccc(N(C(C)C(=O)Nc2ccc(S(=O)(=O)N3CCOCC3)cc2)S(C)(=O)=O)cc1C (centres undefined) | inconclusive: 44.7 µM [inhibitor, single point] | 
Fc1ccccc1CSc1ccc(-c2ccco2)nn1 | inconclusive: 31.6 µM [inhibitor, single point] | 
CC(C)OCCOc1ccc2oc(-c3ccco3)cc(=O)c2c1 |  | inactive: 6.72%
COc1ccc(S(=O)(=O)N(CCC(=O)O)Cc2ccccc2)cc1 |  | inactive: -3.65%
NC(=S)Nc1nc2ccccc2s1 | inconclusive: 28.2 µM [inhibitor, partial curve] | 
CCc1ccc(OCC(=O)N(Cc2ccco2)Cc2ccccc2Cl)cc1 |  | inactive: 66.2%
COC(=O)c1ccc(C(/C=C/[C@@H](C)C(=O)NCCc2c[nH]c3ccccc23)NC(=O)OCc2ccccc2)cc1 (some centres undefined) |  | inactive: 4.78%
Cc1sc2nc(C3CC3)nc(N3CCN(C(=O)c4ccc(Cl)cc4)CC3)c2c1C |  | inactive: 5.63%
O=C1NC2(CCCCCC2)C(=O)N1Cc1c(F)cccc1Cl | inconclusive: 17.8 µM [inhibitor, partial curve] | 
NNC(=O)c1cc2c(N3CCC(Cc4ccccc4)CC3)ncnc2s1 | inconclusive: 17.8 µM [inhibitor, partial curve] | 
Cc1ccc(-c2csc(NC(=O)c3cccc(S(=O)(=O)N4CCN(C)CC4)c3)n2)cc1 | inconclusive: 31.6 µM [inhibitor, partial curve] | 
Cc1c(CCOC(=O)c2cc([N+](=O)[O-])cc([N+](=O)[O-])c2)sc[n+]1CC(=O)c1ccc(Br)cc1 | inconclusive: 12.6 µM [inhibitor, partial curve] | 
Cc1ccc(C(=O)NNC(=S)NC(=O)c2ccc(Cl)cc2Cl)cc1 |  | inactive: -21%
CC1CC(C)CN(C(=O)C2CCN(S(=O)(=O)c3c(Cl)cccc3Cl)CC2)C1 (centres undefined) | inconclusive: 35.5 µM [inhibitor, single point] | 
Cc1cccc(C)c1Nc1nc2ccccc2o1 | inconclusive: 50.1 µM [inhibitor, single point] | 
O=C(NCc1ccccc1)c1ccc(F)c(F)c1 |  | inactive: -5.21%
CCOc1ccc(-c2nnn(CC(=O)Nc3cc(OC)ccc3OC)n2)cc1OCC |  | inactive: -0.543%
O=C(Nc1ccc2c(c1)OCO2)C1CC(c2c(F)cccc2Cl)=NO1 (centres undefined) | inconclusive: 39.8 µM [inhibitor, partial curve] | 
N#CC(C(=O)OCc1ccccc1)c1nc2ccccc2nc1N1CCOCC1 (centres undefined) | inconclusive: 17.8 µM [inhibitor, partial curve] | 
COc1cccc(C(=O)NC2CCCc3ccccc32)c1 (centres undefined) | inconclusive: 31.6 µM [inhibitor, partial curve] | 
CN(C(=O)c1ccc2c(Cl)c3c(nc2c1)CCC3)c1ccccc1 | inconclusive: 35.5 µM [inhibitor, partial curve] | 
CCSc1ccccc1C(=O)Nc1ccc([N+](=O)[O-])cc1OC | inconclusive: 28.2 µM [inhibitor, partial curve] | 
COc1ccc(OC(=O)c2cccc([N+](=O)[O-])c2)c(C(=O)/C=C/c2cccs2)c1 | inconclusive: 35.5 µM [inhibitor, partial curve] | 
